Measurements from PubChem BioAssay AID1159614 (National Center for Advancing Translational Sciences (NCATS), 2016).
Hit rate of the full screen: of about 45,000 compounds, about 65 (0.1%) were called active. Calls come from the whole dose curve; as a rule, active = well fitted activation curve with a large enough effect; inconclusive = small, poorly fitted or top-dose-only effect; inactive = no such curve, though single readings can be large or run the other way. This is one part of the list.

target: Galactocerebrosidase (Homo sapiens) (UniProt P54803); test: A Novel Cell-Based Assay to Identify Small Molecules for B -Galactocerebrosidase; settings: 145M-Twi-hGALC-G270D cells (Twitcher mouse brain line with human GALC G270D), HMU-beta-Gal fluorescence, 48 h; series mostly up to 57.5 µM; activation: at the top concentration; note: 0% is about no effect; nearly all actives have a fitted effect of over 65% in size
Sequence of UniProt P54803 (P54803 whole entry, looked up): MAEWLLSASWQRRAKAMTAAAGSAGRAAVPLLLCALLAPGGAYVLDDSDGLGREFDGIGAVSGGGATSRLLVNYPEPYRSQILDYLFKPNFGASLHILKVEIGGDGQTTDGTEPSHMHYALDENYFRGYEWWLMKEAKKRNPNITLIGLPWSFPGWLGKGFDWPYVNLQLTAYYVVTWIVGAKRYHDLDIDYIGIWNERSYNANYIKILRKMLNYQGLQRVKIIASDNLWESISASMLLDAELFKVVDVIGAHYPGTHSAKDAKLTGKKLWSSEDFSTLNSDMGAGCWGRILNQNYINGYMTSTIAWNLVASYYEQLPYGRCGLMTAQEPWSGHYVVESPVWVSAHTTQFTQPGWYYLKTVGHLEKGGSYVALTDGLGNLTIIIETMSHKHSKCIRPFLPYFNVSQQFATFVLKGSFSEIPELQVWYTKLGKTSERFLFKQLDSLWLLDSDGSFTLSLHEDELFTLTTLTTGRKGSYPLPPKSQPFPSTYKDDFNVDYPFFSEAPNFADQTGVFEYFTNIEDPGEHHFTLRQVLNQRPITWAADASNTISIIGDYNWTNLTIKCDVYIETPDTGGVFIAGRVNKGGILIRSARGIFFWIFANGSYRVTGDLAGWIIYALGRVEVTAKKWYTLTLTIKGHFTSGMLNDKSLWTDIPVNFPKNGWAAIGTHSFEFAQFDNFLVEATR
Outline: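 Live 145M-Twi cells (Twitcher mouse brain-derived, GALC-null) stably expressing human GALC-G270D, with a wild-type GALC line, were compound-treated. Residual GALC activity was then read as fluorescence from 0.1 mM final HMU-β-gal at pH 5.2; higher signal means activation.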

activation, inactive:
COc1ccc(S(=O)(=O)N(CC(=O)N2CCc3ccccc3C2)c2ccc(C)cc2)cc1 -6.45%, CCOc1ccc(C(=O)Nc2cccc(C(=O)OCc3cc(=O)n4cc(C)sc4n3)c2)cc1 -4.95%, Cc1cccc2nc(Cn3c(=O)n(-c4ccc(Cl)cc4)c(=O)c4c5c(sc43)CCC5)cc(=O)n12 0.0475%, Cc1cccc(Cn2cc(S(=O)(=O)c3ccccc3)c(=O)c3cc(F)c(N4CCOCC4)cc32)c1 -6.84%, Cc1cccc(C)c1NC(=O)C1CCCN1S(=O)(=O)c1ccccc1 (stereo unspecified) -17.6%, CC1=C(C/C=C(\C)CCC[C@H](C)CCC[C@H](C)CCCC(C)C)C(=O)c2ccccc2C1=O -9.08%, CC(=O)N1c2ccc(S(=O)(=O)N3CCC(C(=O)Nc4cccc(Cl)c4C)CC3)cc2CC1C (stereo unspecified) -16.1%, COc1ccc(N2CCN(CCCNC(=O)c3nnc(Cc4ccc(F)cc4)o3)CC2)cc1 -12.2%, Cc1ccccc1OC(=O)c1nc(SCc2ccccc2F)ncc1Cl -9.88%, CN(C)c1ccc(CNC(=O)Cc2ccc(NC(=O)N3CCCCc4ccccc43)cc2)cc1 -17.2%, O=C(OCCOCCO)c1ccccc1Nc1cccc(C(F)(F)F)c1 -5.42%, CCc1ccc2ncc3c(-c4ccc(F)cc4)nn(CC(=O)NC4CCCCC4)c3c2c1 -23.7%, Cc1ccc2c(CC(=O)Nc3ccc(S(=O)(=O)N4CCCCC4C)cc3)coc2c1C (stereo unspecified) -18%, CCOC(=O)Cn1c(=O)n(-c2cccc(Cl)c2)c2nc(-c3ccccc3Cl)nc(C(N)=O)c21 -29.4%, O=C(CC1NCCNC1=O)Nc1ccc(F)c(Cl)c1 (stereo unspecified) -11.1%, NS(=O)(=O)c1cc2c(cc1Cl)NC(CC1CCCC1)NS2(=O)=O (stereo unspecified) -7.85%, O=C(CSc1nnc(CNC(=O)c2ccccc2)n1-c1ccc(F)cc1)Nc1ccccc1F -8.47%, Cc1cc(NC(=O)c2oc3c(c2C)-c2[nH]ncc2CC3)ccc1Br 29.4%, Cc1nn(-c2ccc(F)cc2)c(-n2cccc2)c1C(=O)N1CCCCC1C (stereo unspecified) 13.5%, Cc1cc(=O)n2nc(N3CCC(C(=O)NCCCOC(C)C)CC3)sc2n1 -2.28%, CCC(C(=O)Nc1cc(-c2cn3cccnc3n2)ccc1C)c1ccccc1 (stereo unspecified) -1.13%, CCOCCCn1c(SCC(=O)Nc2ccc(F)cc2)nc2c(sc3ccccc32)c1=O 1.69%, COc1ccccc1N1CCN(S(=O)(=O)c2ccc3c(c2)CCCN3C(C)=O)CC1 -15.1%, CCCCOc1ccc(C(=O)Nc2sc3c(c2C(=O)OCC)CCCCC3)cc1 13.4%, COc1ccc(Nc2ncc(C(=O)Nc3ccc(F)cc3F)c3ccccc23)cc1 -16.1%, Nc1nc2nc(-c3ccccc3)cc(=O)n2[nH]1 -5.44%, Cc1ccccc1CNC(=O)CN1CCSc2ccccc21 -17.9%, CC(C)(C)NCC(O)c1cc(O)cc(O)c1 (stereo unspecified) -9.05%, CCc1ccccc1-n1c(SCC(=O)Nc2ccc(C)cc2)nc2n[nH]c(C)c2c1=N -7.65%, CCc1cccc(NC(=O)Cn2c(-c3ccc(F)cc3)cc(C(C)=O)c2C)c1 2.9%, O=C(c1ccc2c(c1)N(Cc1ccccc1Cl)C(=O)c1ccccc1S2)N1CCCC1 -8.37%, O=C(CSc1nc2ccccc2nc1Cc1ccc(Cl)cc1)N1CCCCC1 -6.71%, CCCCOC(=O)c1ccc(NC(=O)c2ccc3c(c2)CCCN3S(C)(=O)=O)cc1 -45.6%, Cc1ccc(NC(=O)C2CCN(S(=O)(=O)c3ccc4c(c3)CCCC(=O)N4)CC2)c(Br)c1 -11.8%, COc1ccc(NC(=O)CN2CCCN(Cc3ccccc3)S2(=O)=O)cc1 -2.88%, Fc1ccc(CNc2nc(-c3ccc(Cl)cc3)cc(C(F)(F)F)n2)cc1 -15.6%, Cc1cccc(NS(=O)(=O)c2ccc3c(c2)n(C)c(=O)n3C)c1C -13.8%, COc1ccccc1N1CCN(c2ncc3c(n2)CCN(Cc2ccc(C)s2)C3)CC1 -13%, O=c1oc2ccccc2cc1-c1nc(-c2cccc(Cl)c2)cs1 -11%, CC[N+](CC)(CC)CCOc1cccc(OCC[N+](CC)(CC)CC)c1OCC[N+](CC)(CC)CC -6.36%, Cc1cccn2c(=O)cc(CSc3nnc(NC(=O)C(C)C)s3)nc12 -13.9%, COc1ccc(Cl)cc1NC(=O)CSc1cc(C)[nH]c(=O)n1 -17.4%, Cc1ccc(Cl)cc1N1CCN(C(=O)c2sc3nc4n(c(=O)c3c2C)CCC4)CC1 -17.4%, CCN(CC)C(=O)Cn1cc(SCC(=O)Nc2cc(OC)ccc2OC)c2ccccc21 1.84%, CN(C)CCNC(=O)c1ccc2nc(Cc3ccccc3)oc2c1 -10.5%, CSc1ccc(CCNC(=O)c2c(C)nn(-c3ccc(F)cc3)c2-n2cccc2)cc1 -7.63%, O=C(NCc1ccc(Cl)cc1)C1CCN(S(=O)(=O)c2ccc(F)cc2)CC1 -5.86%, COc1ccc(C(=O)NCC(c2ccc(N(C)C)cc2)N2CCOCC2)cc1 (stereo unspecified) -8.36%, CCOC(=O)c1noc2ncn(Cc3ccc([N+](=O)[O-])cc3)c(=O)c12 5.23%, Cc1ccc(CSc2nc3ccc(NC(=O)CC(C)C)cc3s2)cc1 1.45%, CCC(C)n1c(SCc2ccc(F)cc2Cl)nc2ccsc2c1=O (stereo unspecified) -8.57%, CCC(CC)C(=O)Nc1ccc2nc(SCC(=O)N3CCOCC3)sc2c1 -14.1%, Cc1ccccc1C(=O)Nc1sc2c(c1C(=O)N1CCCCC1)CCC(C(C)(C)C)C2 (stereo unspecified) -11%, CCOc1ccc(NC(=O)c2c(NC(=O)c3cccc(C)c3)sc3c2CCC3)cc1 -14%, CC1=C(c2ccc(C(C)C)cc2)S(=O)(=O)N=C1N1CCC(C(=O)NCc2ccco2)CC1 -11.1%, O=C(NCC1CCN(Cc2cccc(F)c2)CC1)c1cc2ccc3cccnc3c2[nH]1 -8.74%, CCOC(=O)c1c(NC(=O)CSc2cn(CCNC(=O)c3ccccc3OC)c3ccccc23)sc2c1CCCC2 -12.4%, Cc1cc(C)cc(NC(=O)CN2C(=O)CSc3ccc(S(=O)(=O)N4CCCC4)cc32)c1 -8.84%, CCOc1ccc(NC(=O)Cn2c(=O)n(Cc3ccccc3)c(=O)c3sc4ccccc4c32)cc1 -15.2%, Cc1c(C(=O)NCCc2ccccc2)cccc1-n1cnc2cccnc21 -15.3%, CCc1ccc(NC(=O)CC2C(=O)N(c3ccc(OC)cc3)C(=O)N2Cc2ccc(OC)cc2)cc1 (stereo unspecified) -23.1%, COc1ccc(CCNc2ncnc3c2c(-c2ccccc2)cn3-c2cccc(Cl)c2)cc1OC -33.1%, COc1ccccc1N1CCN(S(=O)(=O)CCNC(=O)COc2ccc(F)cc2)CC1 -32.7%, Cc1ccc(CNC(=O)Cn2c(=O)cc(-c3ccccc3)c3c(C)nn(C)c32)cc1 0.43%, Cc1ccn2c(=O)c(C(=O)NCCc3ccc(S(N)(=O)=O)cc3)c(O)nc2c1 7.88%, Cc1cc(=O)n(Cc2ccc(F)cc2Cl)c2c1c(C)nn2-c1ccccc1 -9.8%, COc1ccccc1CNC(=O)C1CCN(S(=O)(=O)c2c(C)noc2/C=C/c2cccs2)CC1 -14.4%, CCn1c(=O)c2sccc2n2c(CCCC(=O)N3CCN(c4cc(C)ccc4C)CC3)nnc12 -6.96%, COc1cc(C2C(C(=O)OC(C)C)=C(C)N=C3SCCC(=O)N32)ccc1OCc1ccccc1 (stereo unspecified) -2.23%, COc1ccc(NC(=O)NCc2cccn2Cc2ccc(F)cc2)cc1OC -6.71%, Cc1cc(Nc2ccccc2Cl)n2nc(-c3ccco3)nc2n1 -11.1%, COc1cccc(NC(=O)N(Cc2cn(C)c3ccccc23)C2CCCCC2)c1 4.25%, COc1ccc(OC)c(NC(=O)c2c(NCc3ccc(C)o3)sc3c2CCCCC3)c1 -26.9%, Cc1ccc(NCc2ccccc2-c2nnc(-c3ccccc3Cl)o2)cc1Cl -14.5%, COc1ccc(N2C(=O)CSC23C(=O)N(CC(=O)NCc2ccccc2)c2ccccc23)cc1 (stereo unspecified) -16.1%, CS(=O)(=O)NCCc1csc2nc(-c3ccccc3)nn12 -12.7%, COc1ccc(S(=O)(=O)NC2(C(F)(F)F)NC(=O)N(CCc3ccc(OC)c(OC)c3)C2=O)cc1 (stereo unspecified) 11%, COc1ccccc1CNC(=O)CCCn1nc(C)c2c(C)n(-c3ccc(C)cc3)nc2c1=O -12.7%, Cc1nc2ccn(Cc3cccnc3)c(=O)c2cc1C(=O)NCc1ccc(Cl)cc1 -15.1%, O=C(NCCc1ccccc1)C(=O)NCC(c1cccnc1)N1CCN(c2ccccc2)CC1 (stereo unspecified) -3.36%, Cc1cccc2c1-c1sc(C(=O)N3CCN(c4ccc(F)cc4)CC3)cc1CO2 -5.11%, CC(=O)c1ccc(N2CCN(S(=O)(=O)c3cc(-c4onc(C)c4C)ccc3C)CC2)cc1 -3.94%, Cc1ccccc1CNC(=O)CCCn1c(=O)c2cccn2c2ccccc21 15.6%, O=C(Cn1cc(S(=O)(=O)N2CCN(c3ccccc3F)CC2)c2ccccc2c1=O)Nc1cccc(C(F)(F)F)c1 -12.1%, O=C(CSc1nnc2scc(-c3ccc(Cl)cc3)n12)Nc1ccccc1F -3.26%, Cc1ccc2onc(CC(=O)Nc3cc(F)ccc3F)c2c1 -11.2%, Cc1ccc(-c2cc(C(F)(F)F)n3nc(C(=O)Nc4sc5c(c4C#N)CCC(C)C5)cc3n2)cc1 (stereo unspecified) -3.35%, COC(=O)c1c(SC)nc2ccccc2c1OCc1ccc(C)cc1C -18.4%, COc1cc(C(=O)Nc2ccc(Cl)c(-c3nc4ncccc4o3)c2)cc(OC)c1OC 8.83%, COc1ccc(C(=O)Nc2ccc3c(c2)N(C2CCCC2)C(=O)c2ccccc2S3)cc1OC -9.49%, CC(CNC(=O)c1ccc(CSc2nc3ccncc3n2Cc2cccc(F)c2)cc1)c1ccccc1 (stereo unspecified) -11.7%, Cc1ccc(C)c(-c2nn(CC(=O)Nc3cc(F)ccc3F)c(=O)c3c2CCCC3)c1 -11.6%, CCOc1cccc(CC(=O)N2CCc3c([nH]c4ccccc34)C2c2ccc(C)cc2)c1OCC (stereo unspecified) -1.08%, CCn1cc(C(=O)OCC(=O)Nc2cccc(Cl)c2C)c(=O)c2ccc(C)nc21 -10.7%, C=Cc1ccc(CSc2nc(-c3ccccc3C)nc3c2Cc2c(CO)cnc(C)c2O3)cc1 -10.5%, CCC1CCCCN1S(=O)(=O)c1ccc2c(c1)CCCN2C(C)=O (stereo unspecified) -13.8%
